{"source": "PubChem BioAssay AID463173", "about": "(ICCB-Longwood Screening Facility, Harvard Medical School, 2010)", "note": "About 1,700 (3.3%) of roughly 52,000 compounds were called active. No stated cut-off is given here; in the data, active means survival mostly below about 52% (no sharp cut-off); inactive means mostly above about 56%. This is one part of the list."}
{"system": "Wild type", "test": "S. aureus survival, RN4220 and DeltatarO strains – OD600, teichoic acid synthesis inhibitors, primary screen (AID 463173)", "settings": "S. aureus RN4220 wild type/DeltatarO growth, OD600, 18 h, stronger effect = lower value, screened at 18.75 µg/mL (by protocol)"}
{"smiles": "CCCN(CCC)CCNC(=O)CN1C(=O)COc2ccc(S(=O)(=O)N3CCC(C)CC3)cc21", "survival": "inactive: 80%"}
{"smiles": "CCCCN(CCCC)CCNC(=O)c1cn(CC)c2ccc(S(=O)(=O)N3CCc4ccccc4C3)cc2c1=O", "survival": "inactive: 84%"}
{"smiles": "Cc1oc(-c2cccc(Cl)c2)nc1CN1CCC(C(=O)NCCCN2CCN(c3ccccc3F)CC2)CC1", "survival": "inactive: 82%"}
{"smiles": "CCOC(=O)Cn1nc(-c2ccccc2)c2cnc3ccc(OCC)cc3c21", "survival": "inactive: 105%"}
{"smiles": "C=C(C)c1cccc(C(C)(C)NC(=O)NCc2cccnc2)c1", "survival": "inactive: 114%"}
{"smiles": "O=C(CN(CCc1ccccc1)S(=O)(=O)c1ccc(Br)cc1)NCc1ccc(Cl)cc1", "survival": "inactive: 132%"}
{"smiles": "CCC1CN(C(=O)C2CCN(S(=O)(=O)c3c(C)noc3/C=C/c3ccccc3F)CC2)c2cc(Cl)ccc2O1", "note": "(stereo not given)", "survival": "inactive: 71%"}
{"smiles": "COc1ccc(N(Cc2cccs2)C(=O)c2ccc(Br)o2)cc1", "survival": "inactive: 84%"}
{"smiles": "COc1ccc(NC(=O)C2CCCN(S(=O)(=O)c3ccc4c(c3)CCCC(=O)N4)C2)cc1OC", "note": "(stereo not given)", "survival": "inactive: 79%"}
{"smiles": "Cc1ccc2c(=O)cc(C(=O)Nc3ccc(S(=O)(=O)Nc4nc(C)cc(C)n4)cc3)oc2c1", "survival": "inactive: 99%"}
{"smiles": "CC(=O)N1C(O)CCN1c1ccccc1", "note": "(stereo not given)", "survival": "inactive: 114%"}
{"smiles": "CCc1ccc(NC(=O)CSC2=Nc3ccccc3C3=NC(CC(=O)NC4CCCCC4)C(=O)N23)cc1", "note": "(stereo not given)", "survival": "inactive: 88%"}
{"smiles": "CCc1cc2c(=O)n(-c3ccccc3)cnc2s1", "survival": "inactive: 98%"}
{"smiles": "CCOc1cc(C2C(C(=O)Nc3ccc(OC)cc3)=C(C)Nc3nc(SC)nn32)ccc1O", "note": "(stereo not given)", "survival": "inactive: 164%"}
{"smiles": "O=C(C1CCN(c2ncnc3c2nc2n3CCCCC2)CC1)N1CCN(c2ccc(F)cc2)CC1", "survival": "active: -3%"}
{"smiles": "COC(=O)C1C(O)=C(C=Nc2ccccc2)C(=O)CC1(C)C", "note": "(stereo not given)", "survival": "inactive: 126%"}
{"smiles": "O=C(c1ccco1)n1nc(-c2ccc(Cl)cc2)nc1NCc1ccccc1", "survival": "inactive: 74%"}
{"smiles": "Cc1ccc(N2C(=O)NC(NS(=O)(=O)c3ccc(Cl)cc3)(C(F)(F)F)C2=O)cc1C", "note": "(stereo not given)", "survival": "inactive: 87%"}
{"smiles": "C/C=N/N(c1ccccc1)c1ccccc1", "survival": "inactive: 96%"}
{"smiles": "CCc1ccc(NC(=O)Cn2c(=O)n(Cc3nc(-c4ccccc4)no3)c(=O)c3cc4c(cc32)OCO4)cc1", "survival": "inactive: 89%"}
{"smiles": "COc1ccc(S(=O)(=O)N2CCC(c3ccncc3)CC2)cc1OC", "survival": "inactive: 120%"}
{"smiles": "CCC(Sc1ncnc2sc3c(c12)CCCC3)C(=O)OC(C)C", "note": "(stereo not given)", "survival": "active: -2%"}
{"smiles": "CCCC(=O)N1CC(=O)Nc2ccc(Cl)cc2C1c1ccccc1", "note": "(stereo not given)", "survival": "inactive: 71%"}
{"smiles": "Cc1cccc(C(=O)Nc2ccc(C(=O)OCc3cc(=O)n4nc(C5CC5)sc4n3)cc2)c1", "survival": "inactive: 71%"}
{"smiles": "COc1ccccc1N1CCN(C(=O)CCc2nnc3n(C)c(=O)c4sccc4n23)CC1", "survival": "inactive: 134%"}
{"smiles": "COc1ccc(CC(=O)NC2CCN(S(=O)(=O)c3ccccc3C(=O)O)CC2)cc1OC", "survival": "inactive: 113%"}
{"smiles": "COc1ccc(S(=O)(=O)NCC(c2ccc(N(C)C)cc2)N2CCc3ccccc32)cc1", "note": "(stereo not given)", "survival": "inactive: 73%"}
{"smiles": "CC1CC(CN)CC(CO)C1", "note": "(stereo not given)", "survival": "inactive: 108%"}
{"smiles": "COCCNC(=O)CSc1cn(CC(=O)N2CCCCCC2)c2ccccc12", "survival": "inactive: 90%"}
{"smiles": "CSc1ccc(CCNC(=O)Cn2ncc3c(=O)oc4ccccc4c32)cc1", "survival": "inactive: 80%"}
{"smiles": "Cc1ccc(NC(=O)C2CCCN2S(=O)(=O)c2ccc3nc(-c4ccccc4)[nH]c3c2)cc1F", "note": "(stereo not given)", "survival": "inactive: 70%"}
{"smiles": "CCOc1ccc(OCC)c(NC(=O)C2CCN(S(=O)(=O)c3cn(C)cn3)CC2)c1", "survival": "inactive: 121%"}
{"smiles": "Cc1nn(C)cc1C(C(=O)NC1CCCCC1)N(CCc1ccccc1)C(=O)c1cnccn1", "note": "(stereo not given)", "survival": "inactive: 111%"}
{"smiles": "O=C(CCN1CCOCC1)N1N=C(c2ccccc2)CC1c1ccco1", "note": "(stereo not given)", "survival": "inactive: 104%"}
{"smiles": "Cc1ccc(C)c(CSc2ccc3nnc(CCNS(=O)(=O)c4ccccc4)n3n2)c1", "survival": "inactive: 85%"}
{"smiles": "O=C(O)CN1CC(=O)NC1=O", "survival": "inactive: 96%"}
{"smiles": "COc1ccc(OC)c(Nc2ncnc3c2cnn3-c2cccc(Cl)c2)c1", "survival": "inactive: 64%"}
{"smiles": "Cc1ccn2c(Nc3ccc(F)cc3)c(-c3ccccn3)nc2c1", "survival": "inactive: 79%"}
{"smiles": "O=C(Cn1nc(-c2ccccc2)nc(Cc2ccccc2)c1=O)Nc1ccccc1", "survival": "inactive: 72%"}
{"smiles": "CCCCC(=O)OC1=C(C(C)=O)N(Cc2ccccc2)S(=O)(=O)c2ccccc21", "survival": "inactive: 71%"}
{"smiles": "CCN(CC)CCNC(=O)C1CCN(c2cc(C)nc3c(-c4ccc(Cl)cc4)c(C)nn23)CC1", "survival": "inactive: 118%"}
{"smiles": "Cc1ccc(NS(=O)(=O)c2cnc(N)nc2)c(C)c1", "survival": "inactive: 55%"}
{"smiles": "O=C(NCCc1nc2ccccc2n1Cc1ccccc1)c1ccco1", "survival": "inactive: 121%"}
{"smiles": "Nc1nsnc1C(=O)NCCO", "survival": "inactive: 92%"}
{"smiles": "CCc1nn(CC(=O)Nc2cc(C)cc(C)c2)c(=O)c2cc3sccc3n12", "survival": "inactive: 69%"}
